Z-score data for 73 compounds are collected here from PubChem BioAssay AID488969 (Vanderbilt High Throughput Screening Facility, 2010).

The full ranking holds about 110,000 compounds; the median of “z-score” is about -0.1, and the highest 2% start at about 2. The list shows a part of the results. The source made the active and inactive calls.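 How the source made its calls: active means z-score in the third read window above 3 or below -3; inactive means the rest.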

This test has as its target Metabotropic glutamate receptor 8 (Rattus norvegicus) (UniProt P70579). Nature of the test: rat mGluR8 modulators via GIRK flux, primary screen, cell-based, thallium flux, HTS (AID 488969). The conditions noted are these: HEK293 rat mGluR8, GIRK (G protein-gated inwardly rectifying potassium channel) thallium flux, FluoZin2; at 10 µM; stronger effect = higher value; submaximal glutamate (EC20) added with thallium.
Sequence of UniProt P70579 (P70579 whole entry, looked up): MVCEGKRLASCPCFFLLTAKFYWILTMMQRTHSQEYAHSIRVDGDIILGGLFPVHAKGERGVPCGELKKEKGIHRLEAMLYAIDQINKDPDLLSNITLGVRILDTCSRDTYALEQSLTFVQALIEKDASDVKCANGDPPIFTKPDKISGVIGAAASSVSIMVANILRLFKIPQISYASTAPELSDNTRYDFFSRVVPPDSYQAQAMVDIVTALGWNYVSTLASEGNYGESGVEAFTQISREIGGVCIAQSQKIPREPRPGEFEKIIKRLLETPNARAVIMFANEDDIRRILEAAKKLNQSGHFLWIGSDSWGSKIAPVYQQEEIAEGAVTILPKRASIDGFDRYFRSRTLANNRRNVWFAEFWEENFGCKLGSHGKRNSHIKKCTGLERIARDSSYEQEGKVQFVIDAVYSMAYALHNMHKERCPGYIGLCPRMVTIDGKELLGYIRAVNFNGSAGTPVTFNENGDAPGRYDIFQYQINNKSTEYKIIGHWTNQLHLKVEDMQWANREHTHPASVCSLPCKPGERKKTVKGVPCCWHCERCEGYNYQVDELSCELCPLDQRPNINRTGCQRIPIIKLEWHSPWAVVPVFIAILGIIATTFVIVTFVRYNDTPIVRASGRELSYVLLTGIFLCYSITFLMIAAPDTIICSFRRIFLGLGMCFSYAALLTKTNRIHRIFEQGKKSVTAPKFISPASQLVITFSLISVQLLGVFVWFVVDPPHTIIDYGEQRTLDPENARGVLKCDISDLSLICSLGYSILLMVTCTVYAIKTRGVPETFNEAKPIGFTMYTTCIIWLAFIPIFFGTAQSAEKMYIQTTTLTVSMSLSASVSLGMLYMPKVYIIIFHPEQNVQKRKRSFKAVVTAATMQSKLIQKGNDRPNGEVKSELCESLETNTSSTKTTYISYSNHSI
In turn, `CCOc1ccc(N2CC(C(=O)Nc3cc(C)on3)CC2=O)cc1` (stereo not drawn) registered a z-score of -0.198.

With `COc1ccc(C2CC(c3ccc(Cl)cc3)n3nc(N)nc3N2)cc1` (stereo not drawn), the z-score worked out at 2.61.

As for `CC1CCN(C(=O)CSc2nc3[nH]ncc3c(=O)[nH]2)CC1`, the z-score is -0.218.

Regarding `Cc1ccc2nc(/C=C/c3cccc(F)c3)ccc2c1`, the z-score is -0.172.

As for `O=C(COc1cccc(Cl)c1Cl)Nc1ccc2c(c1)CCC2`, the z-score is -0.118.

As for `Cc1cn2c(nc(=O)c3cccnc32)s1`, the z-score is -0.18.

The compound `O=[N+]([O-])c1cc(-c2cnc3ccccc3n2)ccc1Oc1ccc(F)cc1` displayed a z-score of 1.02.

The compound `O=C(CN1C(=O)C2CCc3[nH]c4ccccc4c3C2C1=O)N1CCCC1` (stereo not drawn) registered a z-score of -0.198.

Compound `O=C(CN1CCCC(O)C1)N1c2ccccc2Sc2ccc(C(F)(F)F)cc21` (stereo not drawn) gave a z-score of -0.253.

Turning to `CCOC(=O)c1cnc2ccc(C(=O)OC)cc2c1NCCN1CCOCC1`, the z-score was found to be 0.687.

Take `Nc1nc(-c2ccc(Br)cc2)cc(C(F)(F)F)n1`: the z-score was 0.218.

In the case of `O=C(COC(=O)c1ccc2[nH]c3c(c2c1)CCCC3)Nc1ccc(Cl)cc1Cl`, the z-score was 0.0235.

`COC(=O)CSc1nc(-c2ccccc2)c2c(c1C#N)CCCC2` came in with a z-score of -0.0951.

For the compound `CN(Cc1ccccc1)S(=O)(=O)c1cccc2cccnc12`, the z-score is -0.284.

The compound `Cc1noc(C(=O)NCc2ccccc2)c1Cl` returned a z-score of -0.324.

With `CCOc1ccc2c(c1)C(=NNC(=O)c1ccncc1)c1cc(OCC)ccc1-2`, the z-score was found to be 0.597.

`CCCCN(CC)C(=O)c1cccc(Cl)c1` returned a z-score of 0.112.

Take `O=C(NCC(c1ccco1)N1CCN(c2ccccc2F)CC1)OCc1ccccc1` (stereo not drawn): the z-score was -0.578.

Take `Cc1ccnc(NC(=O)c2ccccc2NC(=O)C(C)(C)C)c1`: the z-score is -0.256.

Consider `Cc1nc2c3ccccc3[nH]c(=O)n2n1`, for which the z-score is -0.192.

`CCOc1ccc(C(O)Cc2nc3ccccc3n2C)cc1` (stereo not drawn) had a z-score of -0.214.

The compound `CN(NC(=O)NN)c1ncc(C(F)(F)F)cc1Cl` registered a z-score of 0.252.

The compound `O=C(CSc1ncc(-c2ccccc2)[nH]1)Nc1ccccc1` gave a z-score of -0.481.

In the case of `COc1ccc(-c2cc(C(F)F)n3ncc(C(=O)n4ccnc4C)c3n2)cc1`, the z-score was -0.329.

As to `O=C(NCCC1=CCCCC1)C1CCCN(S(=O)(=O)c2cccnc2)C1` (stereo not drawn), the z-score was 0.742.

Compound `C/C(=N\n1c(C)cc(C)c(C#N)c1=O)c1cccs1` showed a z-score of -0.0993.

`CC(C)(C)c1ccc(C(=O)CCCSC2=C(C#N)C(c3ccco3)C3=C(CCCC3=O)N2)cc1` (stereo not drawn) had a z-score of 0.202.

`Clc1ccc(OCc2nnc(-c3ccccc3Br)o2)cc1` displayed a z-score of -0.412.

On to `O=C(CSc1nc2ccccc2[nH]1)Nc1ccccc1F`, for which the z-score is 0.0383.

`COc1cccc(Nc2ncccc2C(=O)O)c1`: the z-score came out at 0.133.

`N#CC1=C2SCN(Cc3ccccc3)CN2C(=O)CC1c1ccc2c(c1)OCO2` (stereo not drawn) yielded a z-score of 0.576.

In the case of `CCCn1nnnc1NCc1ccccc1OCc1ccc(F)cc1`, the z-score was -0.956.

The compound `Cc1ccc(O)c(C(=O)/C=C/c2ccc3c(c2)OCCCO3)c1` had a z-score of 0.653.

`Cc1ccc(CCNC(=O)C2CCCN(S(=O)(=O)c3c(C)nn(C)c3C)C2)cc1` (stereo not drawn) came in with a z-score of 0.839.

For the compound `CCC(=O)N1Cc2ccccc2-c2ccccc2C1=O`, the z-score was -0.718.

`CC1(C)NC(=O)NC2(C)NC(=O)NC(C)(C)C12` (stereo not drawn): the z-score is active: -4.86.

The compound `O=c1c2[nH]c3ccccc3c2ncn1C1CCCCC1` yielded a z-score of 0.256.

In turn, `Cc1c(C(=O)N2CCN(S(C)(=O)=O)CC2)oc2ccccc12` gave a z-score of -0.216.

Compound `Cc1cccn2c(=O)c3cc(C(=O)NCCN4CCOCC4)c(=N)n(CCc4ccccc4)c3nc12` returned a z-score of -0.0779.

In turn, `O=S(=O)(c1ccccc1)c1cnn(-c2ccccc2)c1-c1ccc(F)cc1` gave a z-score of -0.165.

As for `Cc1sc(NC(=O)c2ccc(Br)s2)c(C(N)=O)c1C`, the z-score amounted to 0.0217.

Turning to `COC(=O)CC1COc2ccccc2N1C(=O)c1ccc(OC)cc1` (stereo not drawn), the z-score is -0.081.

`O=C(N/N=C/c1c(Cl)[nH]c2ccccc12)c1sc2ccccc2c1Cl` had a z-score of -0.189.

Take `O=C(CSc1nnnn1-c1ccccc1)NCc1ccco1`: the z-score is -0.769.

`O=C(Nc1ccc2c(c1)oc1ccccc12)c1ccc2c(c1)OCO2` yielded a z-score of 0.81.

Compound `CCC(=NCc1ccccc1)c1c(C(F)(F)F)[nH]n(-c2nc3ccccc3s2)c1=O` gave a z-score of -0.629.

In turn, `Nc1c(N2CCCCC2)c(=O)[nH]c(=O)n1-c1ccccc1` returned a z-score of 0.241.

For the compound `CCN(CC(O)CON=C1c2ccccc2-c2ccccc21)S(=O)(=O)c1ccc(C)cc1` (stereo not drawn), the z-score is -0.273.

As to `Nc1cc(N)nc(SCCOc2ccccc2)n1`, the z-score turned out to be 0.723.

For the compound `COc1ccc(N(CC(=O)Nc2ccc3c(c2)OCO3)S(=O)(=O)c2ccc(F)cc2)cc1`, the z-score is -0.147.

For the compound `O=C(NCC1CCCO1)c1cccc(Br)c1` (stereo not drawn), the z-score was 0.348.

Consider `Cc1cc(C)c(NC(=O)CN2C(=O)NC3(CCCCC3)C2=O)c(Cl)c1`, for which the z-score was -0.23.

Turning to `O=C(c1ccco1)n1c(=S)nc2ccccn21`, the z-score was 0.588.

In turn, `COc1ccc([N+](=O)[O-])cc1NC(=O)CSc1ccccc1` yielded a z-score of -0.482.

In turn, `O=C(CSc1ccccc1C(=O)NCCCN1CCCC1=O)NCc1ccco1` came in with a z-score of 0.246.

For the compound `CC(=O)Nc1ccc(OCC(O)CN2CCN(Cc3ccccc3)CC2)cc1` (stereo not drawn), the z-score was found to be 1.32.

For the compound `O=C(CN(c1ccccc1)S(=O)(=O)c1ccccc1)NCCSc1nc2ccccc2s1`, the z-score is -0.129.

For `Clc1ccc(Oc2nnnn2-c2ccccc2)cc1`, the z-score is -0.47.

`CN(C)S(=O)(=O)c1cccc(C(=O)OCC(=O)Nc2ccccc2OC(F)F)c1`: the z-score was 0.0874.

`C#CCOC(=O)CCCNc1ccc([N+](=O)[O-])cc1[N+](=O)[O-]` gave a z-score of -0.102.

Take `O=C(O)Cn1cc2c(n1)CCCC2`: the z-score is -0.125.

Consider `CCCNc1c(F)c(F)c2c(C)c3ccccc3nc2c1F`, for which the z-score was -0.741.

For `O=C1/C(=C\c2ccccn2)SC(=S)N1Nc1ncc(C(F)(F)F)cc1Cl`, the z-score was active: 3.17.

Take `Cc1ccc(NC(=O)NC(=S)NC(=O)c2ccccc2)cc1`: the z-score was determined as 1.68.

With `CCOc1ccc(NC(=O)C2CC(=O)N3CCCN=C3S2)cc1` (stereo not drawn), the z-score is -0.444.

In turn, `COc1ccc(/C=C/C(=O)Nc2nc(N)n(-c3ccccc3)n2)cc1` returned a z-score of -0.0927.

`COc1ccc(C(=O)NC(=S)Nc2cc3oc4ccccc4c3cc2OC)cc1` registered a z-score of -0.278.

The compound `O=C1CSC(c2ccccn2)N1c1ccc(Cl)c(Cl)c1` (stereo not drawn) gave a z-score of -0.103.

In turn, `O=C(c1ccncc1)N1CCN(c2cccc(C(F)(F)F)c2)CC1` returned a z-score of 0.0507.

In the case of `COc1ccc(C(=O)Nc2oc(-c3ccccc3)c(-c3ccccc3)c2C#N)cc1`, the z-score is -0.265.

In turn, `COc1ccccc1N(CC(O)CN1C(=O)NC(C)(C)C1=O)S(=O)(=O)c1ccc(C)cc1` (stereo not drawn) came in with a z-score of -0.247.

In turn, `Cc1nc(N)sc1-c1nnc(SCC(=O)Nc2ccccc2C(F)(F)F)n1C` returned a z-score of -0.15.

In the case of `O=C(CCN1CCCCC1)Nc1cccc(Cl)c1`, the z-score turned out to be 0.437.
